Structures can show the parent of a compound that is named as a salt. In all, about 2,800 compounds were measured (“cell viability relative to vehicle”: median about 1.1, lowest 2% from about 0.19 on). Some of the results follow.
test system: NCI-H2228 parental; assay: cell viability relative to vehicle (fraction of vehicle); NCI-H2228 is an ALK-positive lung cancer line and DTP means drug-tolerant persister; higher = less growth inhibition; settings: 100 nM; treatment time 6 days
Summary of the method: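 Each value is viability relative to vehicle-treated cells, measured as ATP with the CellTiter-Glo 3D Cell Viability Assay. Parental NCI-H2228 cells and drug-tolerant persisters (1000 nM targeted drug, 13 days) in 384-well plates received the 3114-agent TargetMol anti-cancer compound library at 100 nM, or DMSO, and were read 6 days later.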

`C[C@@H]1CC[C@@]2(OC1)O[C@H]1C[C@H]3[C@@H]4CC=C5C[C@@H](O[C@@H]6O[C@H](CO)[C@@H](O)[C@H](O[C@@H]7O[C@H](CO)[C@@H](O)[C@H](O)[C@H]7O)[C@H]6O[C@@H]6O[C@@H](C)[C@H](O)[C@@H](O)[C@H]6O)CC[C@]5(C)[C@H]4CC[C@]3(C)[C@H]1[C@@H]2C` [Gracillin] and `C[C@H]1CC[C@@]2(OC1)O[C@H]1C[C@H]3[C@@H]4CC[C@@H]5C[C@@H](O[C@@H]6O[C@H](CO)[C@H](O)[C@H](O)[C@H]6O[C@@H]6O[C@H](CO)[C@@H](O)[C@H](O)[C@H]6O)CC[C@]5(C)[C@H]4CC[C@]3(C)[C@H]1[C@@H]2C` [Timosaponin AIII] are the same in cell viability: 1.17 for the first, 1.17 for the second.

Compared with `CCCC(C(=O)OCCN(CC)CC)(c1ccccc1)c1ccccc1` [Proadifen hydrochloride], `CN(C)[C@@H](CCOc1cccc2ccccc12)c1ccccc1` [Dapoxetine HCl] is higher in cell viability: 0.924 for the first, 1.16 for the second.

Compared with `CCCC(CCC)C(=O)O` [Valproic acid sodium salt], `NCCC(=O)O` [beta-Alanine] is higher in cell viability: 1.03 for the first, 1.24 for the second.

Compared with `COC[C@@H](c1ccc(C(F)(F)F)cc1)N1CCN(C2(C)CCN(C(=O)c3c(C)ncnc3C)CC2)C[C@@H]1C` [Vicriviroc maleate], `COc1cc(N2CCC(N3CCN(C)CC3)CC2)ccc1Nc1ncc(Cl)c(Nc2ccccc2S(=O)(=O)C(C)C)n1` is lower in cell viability: 1.18 for the first, 0.421 for the second.

First: O=C(NC1CCNCC1)c1n[nH]cc1NC(=O)c1c(Cl)cccc1Cl
Second: CNC(=O)CN1CCC(Oc2cc3c(Nc4cccc(Cl)c4F)ncnc3cc2OC)CC1 [Sapitinib]
The cell viability of the first is higher: 1.12 for the first, 1.08 for the second.

Going from `CC(C)c1noc(N2CCC(COc3ccc(-c4ccc(S(C)(=O)=O)cc4)nc3)CC2)n1` to `CCS(=O)(=O)N1CCC([C@@H](C)n2c(C)c(C(=O)NCc3c(OC)cc(C)[nH]c3=O)c3ccccc32)CC1`, the cell viability rises from 0.896 to 0.907.

First: O=CN1CC/C(=C/c2ccc3c(c2)OCO3)C1=O
Second: COc1cc2c[n+](C)c3c4cc5c(cc4ccc3c2cc1OC)OCO5 [Nitidine chloride]
The cell viability of the first is higher: 1.1 for the first, 0.548 for the second.

Going from `CC[C@H](Nc1ncnc2[nH]cnc12)c1nc2cccc(F)c2c(=O)n1-c1ccccc1` [Idelalisib] to `Fc1ccc(CNc2ncnc3ccc(F)cc23)cc1` [Spautin-1], the cell viability falls from 1.13 to 1.05.

Compared with `CC(C)(C)c1cc(/C=C(\C#N)C(N)=S)cc(C(C)(C)C)c1O` [Tyrphostin AG 879], `CC(C)(C)NCC(O)c1ccc(O)c(CO)c1` (centres undefined) [Salbutamol] is lower in cell viability: 1.14 for the first, 0.862 for the second.

Compared with `CC(C)=CCC[C@](C)(O[C@@H]1O[C@H](CO[C@@H]2O[C@H](CO)[C@@H](O)[C@H](O)[C@H]2O)[C@@H](O)[C@H](O)[C@H]1O)[C@H]1CC[C@]2(C)[C@@H]1[C@H](O)C[C@@H]1[C@@]3(C)CC[C@H](O[C@@H]4O[C@H](CO)[C@@H](O)[C@H](O)[C@H]4O)C(C)(C)[C@@H]3CC[C@]12C` [Gypenoside XVII], `O=C(O)C1=CO[C@@H](O[C@@H]2O[C@H](CO)[C@@H](O)[C@H](O)[C@H]2O)[C@H]2[C@@H]1C=C[C@]2(O)CO` [Monotropein] is higher in cell viability: 0.981 for the first, 0.995 for the second.

First: CCC(=O)NCC[C@@H]1CCc2ccc3c(c21)CCO3 [Ramelteon]
Second: O=C1CCc2c(ccc3ccccc23)O1 [Splitomicin]
The cell viability of the first is higher: 1.2 for the first, 1.13 for the second.

Compared with `COC1=CC(=O)C[C@@H](C)[C@]12Oc1c(Cl)c(OC)cc(OC)c1C2=O` [Griseofulvin], `COc1ccc(-c2oc3cc(OC)c(OC)c(O)c3c(=O)c2OC)cc1O` [Vitexicarpin] is lower in cell viability: 1.22 for the first, 1.02 for the second.

Going from `Oc1cccc(O)c1O` [Pyrogallol] to `COc1ccc(C(C)=O)c(O)c1` [Paeonol], the cell viability rises from 1.01 to 1.07.

First: NS(=O)(=O)NCCNc1nonc1/C(=N/O)Nc1ccc(F)c(Br)c1 [Epacadostat]
Second: O=C(Nc1cccc(Cl)c1)Nc1ncc(CCNc2ncnc3ccsc23)s1 [SNS-314 Mesylate]
The cell viability of the first is higher: 1.05 for the first, 0.126 for the second.

First: O=S(=O)(NCCNC/C=C/c1ccc(Br)cc1)c1cccc2cnccc12
Second: O=S(=O)(N=Cc1c(O)ccc2ccccc12)c1cccs1
The cell viability of the first is higher: 1.15 for the first, 1.05 for the second.

First: COc1ccc(-c2coc3cc(O)cc(O)c3c2=O)cc1 [Biochanin A]
Second: COc1cc(-c2nc3ccccc3s2)ccc1O
The cell viability of the first is higher: 1.12 for the first, 1.03 for the second.

First: N=C1S/C(=C\c2ccc(-c3ccc4c(c3)C(=O)NC4=O)o2)C(=O)N1c1ccc(Br)cc1 [Bioymifi]
Second: CC(C)C(C(=O)O)N1C(=O)C(=Cc2ccc(Br)cc2)SC1=S (centres undefined)
The cell viability of the first is higher: 1.12 for the first, 1.04 for the second.

First: CC(C)=CC[C@@H](OC(=O)C=C(C)C)C1=CC(=O)c2c(O)ccc(O)c2C1=O [Dimethylacrylshikonin]
Second: COc1c(O)cc2c(c1O)[C@@H]1O[C@H](CO)[C@@H](O)[C@H](O)[C@H]1OC2=O [Bengenin]
The cell viability of the first is lower: 1.01 for the first, 1.22 for the second.

Compared with `CN(C)CCC(c1ccc(Cl)cc1)c1ccccn1` (centres undefined) [Chlorpheniramine maleate], `Clc1ccc2c(NCCNc3ccnc4cc(Cl)ccc34)ccnc2c1` is lower in cell viability: 1.22 for the first, 1.14 for the second.

Going from `COc1cc(N)c(Cl)cc1C(=O)NC1CCN(CCCOc2ccc(F)cc2)CC1OC` (centres undefined) [Cisapride] to `CCN1CCCC1CNC(=O)c1cc(S(=O)(=O)CC)c(N)cc1OC` (centres undefined) [Amisulpride], the cell viability rises from 0.896 to 1.1.

Compared with `Fc1ccc(-n2cc(CCCCN3CCC4(CC3)OCc3ccccc34)c3ccccc32)cc1` [Siramesine hydrochloride], `COc1ccccc1OCCNCC(O)COc1cccc2[nH]c3ccccc3c12` (centres undefined) [Carvedilol] is lower in cell viability: 1.13 for the first, 1.09 for the second.

First: COc1cccc(OCCCN)c1-c1cc(Nc2cnc(C#N)cn2)n[nH]1 [Prexasertib dihydrochloride]
Second: COc1cc2ncnc(Nc3cccc(O)c3)c2cc1OC
The cell viability of the first is lower: 0.169 for the first, 1.03 for the second.

Compared with `COc1ccc2cc1Oc1ccc(cc1)C[C@H]1c3c(cc4c(c3Oc3cc5c(cc3OC)CCN(C)[C@@H]5C2)OCO4)CCN1C` [Cepharanthine], `COc1ccc(COc2cc3oc(=O)c4cc(C(C)O)ccc4c3cc2OC)cc1` (centres undefined) [Palomid 529] is higher in cell viability: 1.01 for the first, 1.04 for the second.

First: NC1=N[C@@]2(c3cc(NC(=O)c4ccc(F)cn4)ccc3F)COC[C@H]2CS1
Second: CCCS(=O)(=O)Nc1ccc(F)c(C(=O)c2c[nH]c3ncc(Cl)cc23)c1F
The cell viability of the first is higher: 1.19 for the first, 0.928 for the second.

Going from `COC1=C(OC)C(=O)C(C/C=C(\C)CC/C=C(\C)CC/C=C(\C)CC/C=C(\C)CC/C=C(\C)CC/C=C(\C)CC/C=C(\C)CC/C=C(\C)CC/C=C(\C)CCC=C(C)C)=C(C)C1=O` [Coenzyme Q10] to `CO[C@H]1C[C@@H]2CC[C@@H](C)[C@@](O)(O2)C(=O)C(=O)N2CCCC[C@H]2C(=O)O[C@H]([C@H](C)C[C@@H]2CC[C@@H](OP(C)(C)=O)[C@H](OC)C2)CC(=O)[C@H](C)/C=C(\C)[C@@H](O)[C@@H](OC)C(=O)[C@H](C)C[C@H](C)/C=C/C=C/C=C/1C` [Ridaforolimus], the cell viability falls from 1.02 to 0.661.

First: COC(=O)Nc1nc2cc(C(=O)c3ccc(F)cc3)ccc2[nH]1 [Flubendazole]
Second: O=C(NNS(=O)(=O)c1ccccc1F)c1cc(F)cc(-c2ccccn2)c1
The cell viability of the first is lower: 0.866 for the first, 0.971 for the second.

Going from `OC[C@H]1O[C@@H](Oc2cc3c(O)cc(O)cc3[o+]c2-c2ccc(O)c(O)c2)[C@H](O)[C@@H](O)[C@@H]1O` [Kuromanin chloride] to `Nc1cccc(-c2cc3c(Oc4cccc(O)c4)ncnc3[nH]2)c1`, the cell viability falls from 1.18 to 0.996.

Going from `O=C(O)c1ccc(S(=O)(=O)N(Cc2ccc(OC(F)(F)F)cc2)c2ncc(C(F)(F)F)cc2Cl)cc1` to `COc1ccc(CCCOC(Cn2ccnc2)c2ccc(OC)cc2)cc1` (centres undefined), the cell viability rises from 1.02 to 1.14.

First: COc1cc(N(C)C)cc(CN(C)CCc2ccc([N+](=O)[O-])cc2)c1O [CDC25 Phosphatase Inhibitor I]
Second: COc1cc2c(cc1OC)-c1cc3nc4ccccc4nc3n1C(C)(C)C2
The cell viability of the first is lower: 1.05 for the first, 1.11 for the second.

Compared with `CCN1CCN(c2cc(-c3ccc(F)cc3)c3c(n2)CCCCCC3)CC1` [Blonanserin], `CN1CCN(c2ccc(C(=O)Nc3n[nH]c4ccc(Cc5cc(F)cc(F)c5)cc34)c(NC3CCOCC3)c2)CC1` [Entrectinib] is lower in cell viability: 1.09 for the first, 0.619 for the second.

Compared with `CC[C@@H]1C(=O)N(C)c2cnc(Nc3ccc(C(=O)NC4CCN(C)CC4)cc3OC)nc2N1C1CCCC1`, `COc1ccc(-n2nc(C(N)=O)c3c2C(=O)N(c2ccc(N4CCCCC4=O)cc2)CC3)cc1` [Apixaban] is higher in cell viability: 0.167 for the first, 0.894 for the second.

First: CCCCC[C@H](O)CC(=O)CCc1ccc(O)c(OC)c1 [6-Gingerol]
Second: COc1ccccc1OCCNCC(O)COc1cccc2[nH]c3ccccc3c12 (centres undefined) [Carvedilol phosphate]
The cell viability of the first is lower: 1.09 for the first, 1.15 for the second.

Compared with `Nc1n[nH]c2cc(-c3ccc(=O)n(Cc4cccc(Cl)c4)c3)ccc12`, `O=C(Nc1cc(Cl)cc2c1[nH]c1cnccc12)c1cccnc1` is higher in cell viability: 1 for the first, 1.06 for the second.

Compared with `CN(C)c1ccc(C2Nc3ccc4ccccc4c3C3=C2C(=O)CC(C)(C)C3)cc1Br` (centres undefined) [Glutaminase C-IN-1], `COc1ccc2cc(Br)ccc2c1` [2-Bromo-6-methoxynaphthalene] is higher in cell viability: 1.04 for the first, 1.18 for the second.

First: S=P(N1CC1)(N1CC1)N1CC1 [Triethylenethiophosphoramide]
Second: CCn1cc(C(=O)O)c(=O)c2cc(F)c(N3CCNCC3)cc21 [Norfloxacin]
The cell viability of the first is lower: 0.83 for the first, 0.956 for the second.

Compared with `c1cnc(NCc2ccc(CNc3ncccn3)cc2)nc1`, `CC(C)[C@H]1CC[C@H](C(=O)N[C@H](Cc2ccccc2)C(=O)O)CC1` [Nateglinide] is higher in cell viability: 1.06 for the first, 1.2 for the second.

First: CC1CCc2cc(F)cc3c(=O)c(C(=O)O)cn1c23 (centres undefined) [Flumequine]
Second: COC1(c2sc3c(N4CCOCC4)nc(-c4cnc(N)nc4)nc3c2C)COC1
The cell viability of the first is higher: 1.08 for the first, 0.499 for the second.

— the supplement of paper PMC10600219
